Data on 31 molecules can be found in PMC9911399, “Two distinct binding modes provide the RNA-binding protein RbFox with extraordinary sequence specificity”.

Numbering of substitutions follows the chain as printed; changes in the protein carry UniProt numbers. The list shows a part of the results.

To fix the notation:
B1: UGUGCCA (DNA:RNA)
RNA: GGGAGACCGGAAUUCAGAUUGUCCUGUGCCAUUAAAUCCCGUCGUAGCCACCA
DNA 1: CAATCTGAATTCCGGTCTCCC
DNA 2: TGGTGGCTACGACGGGATT
B2: CGAACGG (DNA:RNA)
RNA: B1 RNA with U25C, U27A, G28A, C30G, A31G
DNA 1: CAATCTGAATTCCGGTCTCCC
DNA 2: TGGTGGCTACGACGGGATT
B3: UAUAAUA (DNA:RNA)
RNA: B1 RNA with G26A, G28A, C29A, C30U
DNA 1: CAATCTGAATTCCGGTCTCCC
DNA 2: TGGTGGCTACGACGGGATT
B4: GGUUCUU (DNA:RNA)
RNA: B1 RNA with U25G, G28U, C30U, A31U
DNA 1: CAATCTGAATTCCGGTCTCCC
DNA 2: TGGTGGCTACGACGGGATT
B5: AGCACGG (DNA:RNA)
RNA: B1 RNA with U25A, U27C, G28A, C30G, A31G
DNA 1: CAATCTGAATTCCGGTCTCCC
DNA 2: TGGTGGCTACGACGGGATT
B6: AACUGAA (DNA:RNA)
RNA: B1 RNA with U25A, G26A, U27C, G28U, C29G, C30A
DNA 1: CAATCTGAATTCCGGTCTCCC
DNA 2: TGGTGGCTACGACGGGATT
B7: AAACAAU (DNA:RNA)
RNA: GGGAGACCGGAAUUCAGAUUGUCCAAACAAUUUAAAUCCCGUCGUAGCCACCA
DNA 1: CAATCTGAATTCCGGTCTCCC
DNA 2: TGGTGGCTACGACGGGATT
B8: CAGACGU (DNA:RNA)
RNA: B7 RNA with A25C, A27G, C28A, A29C, A30G
DNA 1: CAATCTGAATTCCGGTCTCCC
DNA 2: TGGTGGCTACGACGGGATT
B9: CCACUGG (DNA:RNA)
RNA: B7 RNA with A25C, A26C, A29U, A30G, U31G
DNA 1: CAATCTGAATTCCGGTCTCCC
DNA 2: TGGTGGCTACGACGGGATT
B10: GGGGGUC (DNA:RNA)
RNA: B1 RNA with U25G, U27G, C29G, C30U, A31C
DNA 1: CAATCTGAATTCCGGTCTCCC
DNA 2: TGGTGGCTACGACGGGATT
B11: UUCGGUG (DNA:RNA)
RNA: B1 RNA with G26U, U27C, C29G, C30U, A31G
DNA 1: CAATCTGAATTCCGGTCTCCC
DNA 2: TGGTGGCTACGACGGGATT
B12: GCUUCUG (DNA:RNA)
RNA: B1 RNA with U25G, G26C, G28U, C30U, A31G
DNA 1: CAATCTGAATTCCGGTCTCCC
DNA 2: TGGTGGCTACGACGGGATT
B13: CAUUUAG (DNA:RNA)
RNA: B7 RNA with A25C, A27U, C28U, A29U, U31G
DNA 1: CAATCTGAATTCCGGTCTCCC
DNA 2: TGGTGGCTACGACGGGATT
B14: CUGAGCU (DNA:RNA)
RNA: B7 RNA with A25C, A26U, A27G, C28A, A29G, A30C
DNA 1: CAATCTGAATTCCGGTCTCCC
DNA 2: TGGTGGCTACGACGGGATT
B15: AGAUCCC (DNA:RNA)
RNA: B1 RNA with U25A, U27A, G28U, A31C
DNA 1: CAATCTGAATTCCGGTCTCCC
DNA 2: TGGTGGCTACGACGGGATT
B16: CGUCAAC (DNA:RNA)
RNA: B7 RNA with A25C, A26G, A27U, U31C
DNA 1: CAATCTGAATTCCGGTCTCCC
DNA 2: TGGTGGCTACGACGGGATT
B17: AUUGCAA (DNA:RNA)
RNA: B1 RNA with U25A, G26U, C30A
DNA 1: CAATCTGAATTCCGGTCTCCC
DNA 2: TGGTGGCTACGACGGGATT
B18: GUUCUGC (DNA:RNA)
RNA: B7 RNA with A25G, A26U, A27U, A29U, A30G, U31C
DNA 1: CAATCTGAATTCCGGTCTCCC
DNA 2: TGGTGGCTACGACGGGATT
B19: ACCUCAG (DNA:RNA)
RNA: B7 RNA with A26C, A27C, C28U, A29C, U31G
DNA 1: CAATCTGAATTCCGGTCTCCC
DNA 2: TGGTGGCTACGACGGGATT
B20: AGCUUCC (DNA:RNA)
RNA: B1 RNA with U25A, U27C, G28U, C29U, A31C
DNA 1: CAATCTGAATTCCGGTCTCCC
DNA 2: TGGTGGCTACGACGGGATT
B21: UUGAAGG (DNA:RNA)
RNA: B7 RNA with A25U, A26U, A27G, C28A, A30G, U31G
DNA 1: CAATCTGAATTCCGGTCTCCC
DNA 2: TGGTGGCTACGACGGGATT
B22: CCCUUAA (DNA:RNA)
RNA: B7 RNA with A25C, A26C, A27C, C28U, A29U, U31A
DNA 1: CAATCTGAATTCCGGTCTCCC
DNA 2: TGGTGGCTACGACGGGATT
B23: CCGCAAC (DNA:RNA)
RNA: B7 RNA with A25C, A26C, A27G, U31C
DNA 1: CAATCTGAATTCCGGTCTCCC
DNA 2: TGGTGGCTACGACGGGATT
B24: GAUUCGG (DNA:RNA)
RNA: B1 RNA with U25G, G26A, G28U, C30G, A31G
DNA 1: CAATCTGAATTCCGGTCTCCC
DNA 2: TGGTGGCTACGACGGGATT
B25: AUGCUCA (DNA:RNA)
RNA: B7 RNA with A26U, A27G, A29U, A30C, U31A
DNA 1: CAATCTGAATTCCGGTCTCCC
DNA 2: TGGTGGCTACGACGGGATT
B26: AACGACC (DNA:RNA)
RNA: B7 RNA with A27C, C28G, A30C, U31C
DNA 1: CAATCTGAATTCCGGTCTCCC
DNA 2: TGGTGGCTACGACGGGATT
B27: ACCGUAC (DNA:RNA)
RNA: B7 RNA with A26C, A27C, C28G, A29U, U31C
DNA 1: CAATCTGAATTCCGGTCTCCC
DNA 2: TGGTGGCTACGACGGGATT
B28: UCUGGGU (DNA:RNA)
RNA: B1 RNA with G26C, C29G, C30G, A31U
DNA 1: CAATCTGAATTCCGGTCTCCC
DNA 2: TGGTGGCTACGACGGGATT
B29: UUAGCCU (DNA:RNA)
RNA: B1 RNA with G26U, U27A, A31U
DNA 1: CAATCTGAATTCCGGTCTCCC
DNA 2: TGGTGGCTACGACGGGATT
B30: UUAUUCG (DNA:RNA)
RNA: B1 RNA with G26U, U27A, G28U, C29U, A31G
DNA 1: CAATCTGAATTCCGGTCTCCC
DNA 2: TGGTGGCTACGACGGGATT
B31: GUGAAAA (DNA:RNA)
RNA: B7 RNA with A25G, A26U, A27G, C28A, U31A
DNA 1: CAATCTGAATTCCGGTCTCCC
DNA 2: TGGTGGCTACGACGGGATT

This assay addresses T1, RBFOX1 RRM (Homo sapiens, UniProt Q9NWB1 109-208).
T1 sequence: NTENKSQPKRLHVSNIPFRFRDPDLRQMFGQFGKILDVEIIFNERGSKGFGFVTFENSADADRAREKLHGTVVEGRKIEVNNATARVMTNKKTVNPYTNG
Description: EMSA; HiTS-Eq, 1 nM pool, 10 min; buffer printed only for the single-RNA assays: 10 mM Tris pH 7.5, 150 mM NaCl, 3.4 mM EDTA, 0.001% NP-40, 30 C. The following applies: tags: His6 N-terminal (pET28a); label: 5' 32P. Put shortly:
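Relative association constants, normalised to the cognate motif, were derived by comparing read counts of each RNA species with those of the control reaction. The RNA sequenced was the free fraction, separated by 8% native PAGE after a 10 min equilibration in 50 µL of 1 nM 5′-radiolabelled RNA (7 randomized nucleotides) with increasing concentrations of purified wild-type or mutant RbFox RRM.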
With B1, the binding signal was 0.0127 KA relative to UGCAUGU.

Turning to B2, the binding signal is 0.0126 KA relative to UGCAUGU. Take B3: the binding signal was 0.00448 KA relative to UGCAUGU. On to B4, for which the binding signal was 0.0104 KA relative to UGCAUGU.

Take B5: the binding signal was 0.0231 KA relative to UGCAUGU. For B6 the value was 0.0104 KA relative to UGCAUGU; for B7, 0.00047 KA relative to UGCAUGU; for B8, 0.00517 KA relative to UGCAUGU. For B9 the value was 0.00879 KA relative to UGCAUGU; for B10, 0.0306 KA relative to UGCAUGU; for B11, 0.0214 KA relative to UGCAUGU. For B12 the value was 0.0318 KA relative to UGCAUGU; for B13, 0.00741 KA relative to UGCAUGU. As to B14, the binding signal is 0.0109 KA relative to UGCAUGU. On to B15, for which the binding signal was 0.00611 KA relative to UGCAUGU. For B16 the value was 0.00305 KA relative to UGCAUGU; for B17, 0.00663 KA relative to UGCAUGU. For B18, the binding signal is 0.0272 KA relative to UGCAUGU. For B19 the value was 0.00561 KA relative to UGCAUGU; for B20, 0.00899 KA relative to UGCAUGU; for B21, 0.0111 KA relative to UGCAUGU.

With B22, the binding signal was 0.00271 KA relative to UGCAUGU.

With B23, the binding signal was 0.00902 KA relative to UGCAUGU. For B24 the value was 0.0065 KA relative to UGCAUGU; for B25, 0.0077 KA relative to UGCAUGU; for B26, 0.00537 KA relative to UGCAUGU.

As for B27, the binding signal was 0.00318 KA relative to UGCAUGU.

For B28, the binding signal was 0.00879 KA relative to UGCAUGU. For B29 the value was 0.00481 KA relative to UGCAUGU; for B30, 0.0188 KA relative to UGCAUGU. Consider B31, for which the binding signal was 0.00822 KA relative to UGCAUGU.
